The record followed here is PubChem BioAssay (NCI).

SMILES strings stand for the structures. Values joined by “and” are separate entries in the source; they are usually repeats but may differ in a detail not shown here. Identical values can stand only once.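 Each compound was tested at five concentrations against cells in 96-well plates for 48 hours. GI50 marks 50% less growth. TGI denotes the concentration required for complete inhibition of growth.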

The test relates to NCI-H322M lung. The test is described as follows: NCI tumour cell line growth inhibition, 48 h.
Consider `Fc1ccc(-c2nn3c(-c4ccc(F)c(Cl)c4)nnc3s2)cc1`, for which the GI50 is 44.4 µM and the TGI was above 50 µM.
On to `CCC1C(=O)OCc2c1cc1n(c2=O)Cc2cc3ccccc3nc2-1` (stereo not given), for which the TGI is above 100 µM.
`COc1ccc2c(c1)C(=O)N1CCOC1C2C(=O)O` (stereo not given): the TGI is above 100 µM.
Still for that read-out and setting: as for `O=C(C=Nc1ccccc1C(=O)[O-])c1cccs1.O=C(C=Nc1ccccc1C(=O)[O-])c1cccs1.[Co+2]`, the figure is above 100 µM; as for `CN(C)c1nc2oc(-c3ccccc3)c(-c3ccccc3)c2c2nncn12`, above 100 µM.
Regarding `O=c1cc(-c2ccccc2)oc2cc(O)c(O)c(O)c12`, the GI50 is 8.89 µM and the TGI was determined as 31 µM.
`N#CCCN(c1ccc(/C=C2\N=C(Cc3ccccc3)OC2=O)cc1)S(=O)(=O)c1ccccc1`: the TGI was above 100 µM.
`C=C(C)C1Cc2c(cc(OC)c3c(=O)c4cccc(O)c4oc23)O1` (stereo not given) displayed a TGI of 96.6 µM.
On the same count and under the same terms, as for `CC(C)c1nc2cc(C(F)(F)F)ccc2[nH]c1=O`, the figure is above 100 µM; as for `COCO[C@@H]1C[C@H]2C(=O)N(COC)c3ccccc3C(=O)N2C1`, above 100 µM.
Take `n1onc2c1NC1Nc3nonc3NC1N2` (stereo not given): the TGI is above 100 µM.
On the same count and under the same terms, as for `CCCCCCCc1cc(OC(=O)c2c(C)cc(OC)cc2O)cc(O)c1C(=O)O`, the figure is 38.8 µM.
For the molecule `CC(=O)O[C@@]12CO[C@@H]1C[C@H](O)[C@@]1(C)C(=O)[C@H](O)C3=C(C)[C@@H](OC(=O)[C@H](O)[C@@H](NC(=O)OC(C)(C)C)c4ccccc4)C[C@@](O)([C@@H](OC(=O)c4ccccc4)[C@H]21)C3(C)C`, the GI50 was 0.027 µM and 0.0064 µM.
In turn, `Cc1cc2c(cc1Cl)SC(c1ccccc1)C(=O)NS2(=O)=O` (stereo not given) displayed a TGI above 100 µM.
Molecule `CC(=O)Oc1cc(C)c2c(c1OC(C)=O)CC1(O2)[C@@H](C)CCC2[C@@]3(C)CC[C@H](OC(C)=O)C(C)(C)C3CC[C@]21C` (stereo not given in full) yielded a TGI above 100 µM.
As to `Cc1ccccc1C1OC(=O)c2ccccc21` (stereo not given), the TGI was above 100 µM.
As to `COc1ccc(NC(=O)CC(=O)N2N=C(N(CCC#N)c3ccccc3Cl)CC2c2ccccc2)cc1` (stereo not given), the TGI was above 100 µM.
In turn, `CCOC(=O)C1C(c2ccc(OC)cc2)c2c([nH]n(-c3ccccc3)c2=O)CC1(O)OCC` (stereo not given) displayed a TGI above 100 µM.
In turn, `Cn1c(-c2cccs2)cc(-c2ccccc2)c1-c1cccs1` showed a TGI above 100 µM.
As to `COC(=O)C1CCOC(C)N1C(=O)OC(C)(C)C` (stereo not given), the TGI was above 100 µM.
In the case of `COC(=O)C1CCC(Nc2ccc(C)cc2C)=N1` (stereo not given), the TGI is above 100 µM.
In the case of `Cc1ccc(NC(=O)Cc2ccc(/C=C/C(=O)c3ncc[nH]3)cc2)cc1`, the GI50 is 6.06 µM and the TGI was above 25 µM.
With `CC[O-].CC[O-].O=C([CH-]C(=O)c1cccnc1)c1ccccc1.O=C([CH-]C(=O)c1cccnc1)c1ccccc1.[Ti+4]`, the GI50 is 89.8 µM and the TGI was above 100 µM.
For `O=S(=O)(Cc1ccc(Cl)cc1Cl)c1ccc(Cl)cc1`, the GI50 is 1.83 µM and the TGI was above 42.5 µM.
Regarding `CC/C(=C(/c1ccc(OCCN(C)C)cc1)c1ccc(OC(=O)CCC(=O)c2c(C)[nH]c(/C=C3\N=C(c4ccc[nH]4)C=C3OC)c2C)cc1)c1ccccc1`, the GI50 was 11.5 µM and the TGI came to 25.7 µM.
`O=C1CC(c2cccc(O)c2)C2(C(=O)NC(=S)NC2=O)C(c2cccc(O)c2)C1` (stereo not given): the GI50 is above 100 µM and the TGI was above 100 µM.
As for `Cn1ccnc1C(=O)/C=C/c1ccc(C(=O)Nc2ccc(S(F)(F)(F)(F)F)cc2)cc1`, the GI50 was 3.2 µM and the TGI was above 14.3 µM.
For `COc1ccc(-n2cc(-c3cc(OC)c(OC)c(OC)c3)nc2SCc2ccccc2)cc1`, the GI50 was above 100 µM and the TGI is above 100 µM.
Take `O=c1c2c3c(sc2n2c(-c4cc(-c5ccccc5)no4)nnc2n1Cc1ccccc1)CCCC3`: the GI50 is 17 µM and the TGI is above 77.9 µM.
`CC(=O)c1c(SCCN2CCCC2)n(-c2ccccc2)c(=S)n(-c2ccccc2)c1=O`: the TGI is 55.7 µM.
Turning to `Cn1c(N)c(C(N)=O)[nH]c1=S`, the TGI was above 100 µM.
For the molecule `CCOC(=O)N1C2C=C(C)C(ON2C(=O)c2ccccc2)C2C(C)C(=O)N21` (stereo not given), the TGI is above 100 µM.
With `CN(Cc1ccc(Cl)cc1)c1ccc(CO)c(Cl)c1`, the GI50 is 6.48 µM and the TGI came to 20.6 µM.
Take `O=C1NC(=O)C(CC(C(=O)C(=O)Nc2ccccc2Cl)C(=O)c2ccc3ccccc3c2)C(=O)N1` (stereo not given): the TGI was above 100 µM.
The same measure, in the same setting: as for `C=C1[C@H](OC(=O)C(C)C)[C@]23CC4(O)[C@@H]5[C@@]6(C)CCC[C@]57C([C@@H]2C[C@@]1(O)[C@H](O)[C@@H]73)N4C6`, the figure is above 100 µM; as for `O=c1[nH]c2ccc(Cl)cc2c2oc(-c3ccccc3)nc12`, 50.7 µM.
Consider `N#Cc1cccc(OCc2nc(N)nc(N)c2-c2ccc(Cl)c(Cl)c2)c1`, for which the GI50 was 2.84 µM and the TGI was above 100 µM.
`CC(=O)N1c2ccccc2C2=CC3C4C(=O)N(c5ccccc5)C(=O)C4C21C1C(=O)N(c2ccccc2)C(=O)C31` (stereo not given): the TGI is above 100 µM.
Regarding `COc1cc2cc(C(=O)CCC(=O)O)sc2cc1OC`, the GI50 is above 100 µM and the TGI is above 100 µM.
On to `N#CC1Cc2cc3c(cc21)OCO3` (stereo not given), for which the TGI is above 100 µM.
On the same count and under the same terms, in the case of `CC(C)(C)OC(=O)NCC(=O)NC1c2ccsc2/C(=N/O)[C@H]1O` (stereo not given in full) it was above 100 µM; in that of `CC(C)C[C@H](NC(=O)[C@H](Cc1ccccc1)NC(=O)CCc1ccccc1)B(O)O`, 0.0212 µM; in that of `O=C(NCCCCN(CCCNC(=O)C(F)(F)F)Cc1ccc2ccccc2c1)C(F)(F)F`, 41.4 µM.
With `CCCc1cc(O)c2c3c(c(=O)oc2c1)CN(C)CC3`, the GI50 was above 100 µM and the TGI was above 100 µM.
`C#CCn1ncc2c(SC)ncnc21` displayed a TGI above 100 µM.
In turn, `CSc1nc(NC2OCC(OC(C)=O)C(OC(C)=O)C2OC(C)=O)c(N=C(C)C(C)=O)c(=O)[nH]1` (stereo not given) returned a TGI above 100 µM.
The same measure, in the same setting: as for `O=C1CS(=O)(=O)C(c2cccc(Oc3ccccc3)c2)N1c1cccc(Cl)c1` (stereo not given), the figure is above 100 µM; as for `O=C1c2cccnc2C(=O)C2C3C=CC(C3)C12` (stereo not given), 93.3 µM; as for `COC(=O)C(C)(C)OCc1ccc(C2NC(=O)N(c3cccc(Cl)c3)C(=O)N2c2cccc(Cl)c2)cc1` (stereo not given), above 100 µM.
The molecule `Cc1ccc(N=NC2S/C(=C(\C#N)c3nc4ccccc4[nH]3)N(c3ccccc3)C2=O)cc1` (stereo not given) displayed a TGI above 100 µM.
The molecule `N#CC(/C(=N/NC(=O)C(=O)NN)C(=O)Nc1nc([N+](=O)[O-])cs1)c1ccc(Cl)cc1` (stereo not given) showed a TGI above 100 µM.
The same measure, in the same setting: as for `CC1=C(/C=C/C(=O)O)C(C)(C)CCC1`, the figure is above 100 µM.
In the case of `C#CCNC(=O)NCCCC(NC(C)=O)C(=O)NCc1ccccc1` (stereo not given), the TGI is above 100 µM.
Same read-out and setting: in the case of `N#CC(C(=O)/C(=N/NC(=O)c1ccccc1O)C(C#N)c1ccccc1)c1ccccc1` (stereo not given) it was above 100 µM.
Consider `O=C1C2C(C(=O)[N]1[Hg][c]1cccs1)C1(Cl)C(Cl)=C(Cl)C2(Cl)C1(Cl)Cl` (stereo not given), for which the GI50 is 4 µM and the TGI is 15.9 µM.
On to `COc1cc2c(c(O)c1OC)C(O)C1CCC(=O)N1C2c1cccc2ccccc12` (stereo not given), for which the TGI was above 100 µM.
As for `CC(C)Nc1ccc(Nc2ccccc2)cc1`, the GI50 was 38.3 µM and the TGI was above 100 µM.
Regarding `Nc1ccc2nc(NCc3ccc(F)cc3)cnc2c1`, the TGI was above 100 µM.
For `O=c1c2ccccc2c(Br)c(Br)c2ccccc12`, the GI50 is 30.9 µM and the TGI came out at 91.2 µM.
For `COc1ccccc1/C=C(\C#N)C(=O)c1ccccc1`, the TGI was above 100 µM.
The same measure, in the same setting: in the case of `CO/C=C(/C(=O)OC)c1ccccc1[C@@H]1CC1c1cccc(F)c1` (stereo not given in full) it was above 100 µM; in that of `CN(C)CCN(C)CC1COC(C)(C)O1` (stereo not given), above 100 µM; in that of `COP(=O)(Cc1ccc(/C=C/C#N)o1)OC`, above 100 µM.
Take `Cc1n[nH]c(=O)n1C1CCCC1`: the TGI is above 100 µM.
The same measure, in the same setting: in the case of `Nc1nc2sc3ccccc3c(=O)n2n1` it was above 100 µM.
Consider `Cc1cc2cc3cc(C)c(N(C)C)cc3[n+](C)c2cc1N(C)C`, for which the GI50 was 5.13 µM and the TGI was above 100 µM.
Regarding `N/C(=C\C(=O)n1nc(-c2ccccc2)cc1N)c1ccccc1`, the GI50 is 5.26 µM and the TGI was found to be 28.5 µM.
On to `CCN(CC)c1ccc(/C=C2/C[N+](C)(C)C/C(=C/c3ccc(N(CC)CC)cc3)C2=O)cc1`, for which the TGI came to 48.9 µM.
`N/C(=N\S(=O)(=O)c1cccc2nsnc12)Nc1ccc(Cl)cc1` had a TGI above 100 µM.
For the molecule `CCOc1ccc(Nc2nc3c(s2)C(=O)c2ccccc2C3=O)cc1`, the TGI was 34.1 µM.
Take `CC(C)[C@H]1CC[C@H]2[C@@H](CC[C@H]3[C@](C)(CN)CCC[C@]23C)C1`: the GI50 was 1.72 µM and the TGI turned out to be 3.35 µM.
In the case of `Nc1ccc(-c2cssc2=S)cc1`, the TGI is above 100 µM.
In turn, `COc1ccc(/C=C/c2sc3ccccc3[n+]2CCCCI)cc1OC` registered a TGI above 10 µM.
Still for that read-out and setting: as for `CCOC(=O)/C(=N\OC)C(O)C(F)(F)F` (stereo not given), the figure is above 100 µM.
In the case of `CCCCCCCCCCCCCCCc1ccc(OCC(O)CO)cc1` (stereo not given), the TGI was above 100 µM.
In the case of `CCCCCCNC(=O)c1cc(CCc2cc(O)ccc2O)ccc1O`, the TGI stood at 26 µM.
The molecule `O=C1CCCC2C(O)CCC[C@H]12` (stereo not given in full) showed a TGI above 100 µM.
For the molecule `COc1cc(-n2cc(-c3ccc(F)cc3)nc2SCc2ccccc2)cc(OC)c1OC`, the GI50 was above 100 µM and the TGI is above 100 µM.
In the case of `O=C1N(c2ccccc2)C2(c3ccccc3)CC3CCCC13S2` (stereo not given), the TGI was above 100 µM.
As to `CCOC(=O)c1sc2ncn(Cc3cccc(Br)c3)c(=O)c2c1C`, the GI50 is 23.1 µM and the TGI is above 100 µM.
In the case of `CCOC(O)(NC(=O)C(C(F)(F)F)C(F)(F)F)C(F)(F)F` (stereo not given), the TGI was above 100 µM.
Turning to `Cc1ccc(Cc2n[nH]c(=O)n2/N=C\CC/C=N\n2c(Cc3ccc(C)cc3)n[nH]c2=O)cc1`, the TGI was above 100 µM.
`N#Cc1n[nH]n(C2CCCCC2)c1=O` had a TGI above 100 µM.
`O=Cc1c2ccccc2n2ccc3c4ccccc4[nH]c3c12` displayed a TGI above 10 µM.
With `CCC[CH2][Sn]([CH2]CCC)([O]C(=O)c1cc(F)ccc1F)[O][Sn]([CH2]CCC)([CH2]CCC)[O]C(=O)c1cc(F)ccc1F`, the GI50 is 1.34 µM and the TGI stood at 2.63 µM.
Regarding `O=C(C[C@H](NC(=O)OCc1ccccc1)C(=O)NC1Cc2ccccc2OC1=O)OCc1ccccc1` (stereo not given in full), the TGI was above 100 µM.
`Nc1nc(N)c(Cn2ccnc2)c(=O)[nH]1` showed a TGI above 100 µM.
